Measurements reported in patent US20210238308A1 (Chugai, published 2021).

T1: PRYSPRY domain of mouse TRIM21 with N-terminal 6xHis tag (mouse)
T1 construct: Expressed in E. coli; also called mTRIM21; mouse TRIM21.PRYSPRY
T1 chain: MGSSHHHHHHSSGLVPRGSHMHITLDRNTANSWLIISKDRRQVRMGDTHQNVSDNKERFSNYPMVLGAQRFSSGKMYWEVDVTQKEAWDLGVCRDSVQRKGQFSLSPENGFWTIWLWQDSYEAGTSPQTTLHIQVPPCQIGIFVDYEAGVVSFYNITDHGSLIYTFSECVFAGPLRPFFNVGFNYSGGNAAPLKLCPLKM

T2: PRYSPRY domain of human TRIM21 with N-terminal 6xHis tag (human)
T2 construct: Expressed in E. coli; also called hTRIM21; human TRIM21.PRYSPRY
T2 chain: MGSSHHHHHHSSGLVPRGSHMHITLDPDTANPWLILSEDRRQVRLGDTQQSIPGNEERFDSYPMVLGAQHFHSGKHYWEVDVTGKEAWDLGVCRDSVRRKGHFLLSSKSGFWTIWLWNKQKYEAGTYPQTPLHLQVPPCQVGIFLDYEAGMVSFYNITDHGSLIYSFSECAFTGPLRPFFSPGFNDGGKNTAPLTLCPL

B1: MRAH-G1d/MRAL-KT0 L432P (antibody, human IgG1, kappa)
heavy: QVQLQESGPGLVRPSQTLSLTCTVSGYSITSDHAWSWVRQPPGRGLEWIGYISYSGITTYNPSLKSRVTMLRDTSKNQFSLRLSSVTAADTAVYYCARSLARTTAMDYWGQGSLVTVSS[human IgG1 constant region with L432P (EU numbers) omitted here]
light: DIQMTQSPSSLSASVGDRVTITCRASQDISSYLNWYQQKPGKAPKLLIYYTSRLHSGVPSRFSGSGSGTDFTFTISSLQPEDIATYYCQQGNTLPYTFGQGTKVEIKRTVAAPSVFIFPPSDEQLKSGTASVVCLLNNFYPREAKVQWKVDNALQSGNSQESVTEQDSKDSTYSLSSTLTLSKADYEKHKVYACEVTHQGLSSPVTKSFNRGEC
notes: copies: 2 + 2
B2: MRAH-G1d/MRAL-KT0 M428G (antibody, human IgG1, kappa)
heavy: QVQLQESGPGLVRPSQTLSLTCTVSGYSITSDHAWSWVRQPPGRGLEWIGYISYSGITTYNPSLKSRVTMLRDTSKNQFSLRLSSVTAADTAVYYCARSLARTTAMDYWGQGSLVTVSS[human IgG1 constant region with M428G (EU numbers) omitted here]
light: B1 light
notes: copies: 2 + 2
B3: MRAH-G1d/MRAL-KT0 L432S (antibody, human IgG1, kappa)
heavy: QVQLQESGPGLVRPSQTLSLTCTVSGYSITSDHAWSWVRQPPGRGLEWIGYISYSGITTYNPSLKSRVTMLRDTSKNQFSLRLSSVTAADTAVYYCARSLARTTAMDYWGQGSLVTVSS[human IgG1 constant region with L432S (EU numbers) omitted here]
light: B1 light
notes: copies: 2 + 2
B4: MRAH-G1d/MRAL-KT0 N315F (antibody, human IgG1, kappa)
heavy: QVQLQESGPGLVRPSQTLSLTCTVSGYSITSDHAWSWVRQPPGRGLEWIGYISYSGITTYNPSLKSRVTMLRDTSKNQFSLRLSSVTAADTAVYYCARSLARTTAMDYWGQGSLVTVSS[human IgG1 constant region with N315F (EU numbers) omitted here]
light: B1 light
notes: copies: 2 + 2
B5: MRAH-G1d/MRAL-KT0 L432Y (antibody, human IgG1, kappa)
heavy: QVQLQESGPGLVRPSQTLSLTCTVSGYSITSDHAWSWVRQPPGRGLEWIGYISYSGITTYNPSLKSRVTMLRDTSKNQFSLRLSSVTAADTAVYYCARSLARTTAMDYWGQGSLVTVSS[human IgG1 constant region with L432Y (EU numbers) omitted here]
light: B1 light
notes: copies: 2 + 2
B6: MRAH-G1d/MRAL-KT0 N315A (antibody, human IgG1, kappa)
heavy: QVQLQESGPGLVRPSQTLSLTCTVSGYSITSDHAWSWVRQPPGRGLEWIGYISYSGITTYNPSLKSRVTMLRDTSKNQFSLRLSSVTAADTAVYYCARSLARTTAMDYWGQGSLVTVSS[human IgG1 constant region with N315A (EU numbers) omitted here]
light: B1 light
notes: copies: 2 + 2
B7: MRAH-G1d/MRAL-KT0 L432T (antibody, human IgG1, kappa)
heavy: QVQLQESGPGLVRPSQTLSLTCTVSGYSITSDHAWSWVRQPPGRGLEWIGYISYSGITTYNPSLKSRVTMLRDTSKNQFSLRLSSVTAADTAVYYCARSLARTTAMDYWGQGSLVTVSS[human IgG1 constant region with L432T (EU numbers) omitted here]
light: B1 light
notes: copies: 2 + 2
B8: MRAH-G1d/MRAL-KT0 M428H (antibody, human IgG1, kappa)
heavy: QVQLQESGPGLVRPSQTLSLTCTVSGYSITSDHAWSWVRQPPGRGLEWIGYISYSGITTYNPSLKSRVTMLRDTSKNQFSLRLSSVTAADTAVYYCARSLARTTAMDYWGQGSLVTVSS[human IgG1 constant region with M428H (EU numbers) omitted here]
light: B1 light
notes: copies: 2 + 2
B9: MRAH-G1d/MRAL-KT0 M428Q (antibody, human IgG1, kappa)
heavy: QVQLQESGPGLVRPSQTLSLTCTVSGYSITSDHAWSWVRQPPGRGLEWIGYISYSGITTYNPSLKSRVTMLRDTSKNQFSLRLSSVTAADTAVYYCARSLARTTAMDYWGQGSLVTVSS[human IgG1 constant region with M428Q (EU numbers) omitted here]
light: B1 light
notes: copies: 2 + 2
B10: MRAH-G1d/MRAL-KT0 M428V (antibody, human IgG1, kappa)
heavy: QVQLQESGPGLVRPSQTLSLTCTVSGYSITSDHAWSWVRQPPGRGLEWIGYISYSGITTYNPSLKSRVTMLRDTSKNQFSLRLSSVTAADTAVYYCARSLARTTAMDYWGQGSLVTVSS[human IgG1 constant region with M428V (EU numbers) omitted here]
light: B1 light
notes: copies: 2 + 2
B11: MRAH-G1d/MRAL-KT0 L432Q (antibody, human IgG1, kappa)
heavy: QVQLQESGPGLVRPSQTLSLTCTVSGYSITSDHAWSWVRQPPGRGLEWIGYISYSGITTYNPSLKSRVTMLRDTSKNQFSLRLSSVTAADTAVYYCARSLARTTAMDYWGQGSLVTVSS[human IgG1 constant region with L432Q (EU numbers) omitted here]
light: B1 light
notes: copies: 2 + 2
B12: MRAH-G1d/MRAL-KT0 M428E (antibody, human IgG1, kappa)
heavy: QVQLQESGPGLVRPSQTLSLTCTVSGYSITSDHAWSWVRQPPGRGLEWIGYISYSGITTYNPSLKSRVTMLRDTSKNQFSLRLSSVTAADTAVYYCARSLARTTAMDYWGQGSLVTVSS[human IgG1 constant region with M428E (EU numbers) omitted here]
light: B1 light
notes: copies: 2 + 2
B13: MRAH-G1d/MRAL-KT0 M428W (antibody, human IgG1, kappa)
heavy: QVQLQESGPGLVRPSQTLSLTCTVSGYSITSDHAWSWVRQPPGRGLEWIGYISYSGITTYNPSLKSRVTMLRDTSKNQFSLRLSSVTAADTAVYYCARSLARTTAMDYWGQGSLVTVSS[human IgG1 constant region with M428W (EU numbers) omitted here]
light: B1 light
notes: copies: 2 + 2
B14: MRAH-G1d/MRAL-KT0 M428Y (antibody, human IgG1, kappa)
heavy: QVQLQESGPGLVRPSQTLSLTCTVSGYSITSDHAWSWVRQPPGRGLEWIGYISYSGITTYNPSLKSRVTMLRDTSKNQFSLRLSSVTAADTAVYYCARSLARTTAMDYWGQGSLVTVSS[human IgG1 constant region with M428Y (EU numbers) omitted here]
light: B1 light
notes: copies: 2 + 2

Target: T1, PRYSPRY domain of mouse TRIM21 with …
Experiment: SPR, Protein L capture

| mTRIM21 binding level ratio (variant/control antibody) | Binder |
| --- | --- |
| 2.01 | B1 |
| 2.24 | B2 |
| 2.16 | B3 |
| 2.46 | B4 |
| 0.695 | B5 |
| 2.29 | B6 |
| 2.76 | B7 |
| 1.59 | B8 |
| 2.02 | B9 |
| 2.38 | B10 |
| 2.22 | B11 |
| 1.47 | B12 |
| 0.758 | B13 |
| 1.25 | B14 |

Target: T2, PRYSPRY domain of human TRIM21 with …
Experiment: SPR, Protein L capture

| hTRIM21 binding level ratio (variant/control antibody) | Binder |
| --- | --- |
| 1.21 | B1 |
| 0.674 | B2 |
| 0.67 | B3 |
| 0.991 | B4 |
| 0.673 | B5 |
| 0.943 | B6 |
| 0.752 | B7 |
| 1.09 | B8 |
| 0.919 | B9 |
| 1.05 | B10 |
| 1.2 | B11 |
| 1.16 | B12 |
| 1.04 | B13 |
| 0.699 | B14 |

target: T3, human FcRn (human, UniProt P55899 part only; P61769 part only, limits assumed); experiment: SPR, Protein L capture
T3 construct: also called hFcRn

| hFcRn binding level ratio (variant/control antibody) | Binder |
| --- | --- |
| 0.02 | B1 |
| 0.32 | B2 |
| 0.03 | B3 |
| 0.03 | B4 |
| 0.43 | B5 |
| 0.05 | B6 |
| 0.64 | B7 |
| 0.16 | B8 |
| 0.3 | B9 |
| 0.57 | B10 |
| 0.61 | B11 |
| 0.32 | B12 |
| 0.66 | B13 |
| 1.27 | B14 |
